Assay results from PubChem BioAssay AID1345083 (National Center for Advancing Translational Sciences (NCATS), 2018).
About 6,200 (6.6%) of roughly 94,000 compounds were called active. The shares of active, inactive and inconclusive entries below differ from those in the screen. Calls come from the whole dose curve; as a rule, active = well fitted inhibition curve with a large enough effect; inconclusive = small, poorly fitted or top-dose-only effect; inactive = flat fitted curve, though single readings scatter. Potencies of inconclusive entries are doubtful fits and often do not repeat.

assay: Cytotoxic Profiling in HEK 293 Cell Line of Diverse Libraries Using Quantitative High-Throughput Screening; conditions: HEK 293 viability, ATP luminescence (CellTiter-Glo), 48-72 h; activity change, negative = cytotoxicity: at 115 µM (top of the series) unless noted; series mostly up to 115 µM; note: nearly all actives have a fitted effect of over 60% in size
How it was run: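 250 HEK 293 cells/well; compound by pintool; incubated 48 or 72 hr at 37 degree Celsius; CellTiter-Glo added, 10 min RT, luminescence imaged.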
% is set by controls: 0 for no effect and ±100 for the full control effect; potency is the fitted concentration of half-maximal effect; tags give direction and shape of the fitted curve.

Compound	Potency	outcome	activity change, negative = cytotoxicity
Cc1ccc(S(=O)(=O)N2CCCC(Cn3cnc4cccnc43)C2)cc1C (stereo not drawn)	inconclusive: 50.1 µM [inhibitor, partial curve, poor fit]		
COCCOc1ccc(-c2ccnc(OC)c2C#N)cc1	inconclusive: 28.2 µM [inhibitor, full curve]		
COc1cc(-c2cc3c(nc2OC)nc(CC2CC2)n3C)ccn1	inconclusive: 63.1 µM [inhibitor, partial curve, poor fit]		
C[S+](=O)([O-])NCc1nnc2n1C(C(=O)NCCc1ccccc1F)CC2 (stereo not drawn)		inactive	
CCc1nc2c(c(-c3ccc(O)cc3)n1)CCN(C(=O)Cc1ccc(OC)cc1)CC2			inactive: -7.67%
O=C(NC1CCCCC1)c1nc2sccn2c1-c1ccccc1	active: 63.1 µM		
COC(=O)c1ccc(NC(=O)N2CC(Oc3cccc(-c4nc(C)no4)c3)C2)cc1	inconclusive: 50.1 µM [inhibitor, partial curve, poor fit]		
O=C(NC1CCN(c2cc(-c3ccc(F)cc3)[nH]n2)C1)c1ccccc1Cl (stereo not drawn)	inconclusive: 50.1 µM [inhibitor, partial curve, poor fit]		
COC(=O)C1c2c(OC)ccc3c2C(=CC(C)(C)CO3)CN1Cc1ccccc1 (stereo not drawn)	inconclusive: 50.1 µM [inhibitor, partial curve, poor fit]		
Cc1ccc(OCc2nc(C3CCNCC3)no2)cc1	inconclusive: 56.2 µM [inhibitor, partial curve, poor fit]		
CN1C(=O)C(CC(=O)NCCc2nc(-c3cccnc3)n[nH]2)N(C)C1=O (stereo not drawn)	inconclusive: 25.1 µM [inhibitor, full curve]		
COc1ccccc1C(=O)N1CCC(C(NC(=O)c2ccccc2)C(=O)N2CCCCC2)CC1 (stereo not drawn)	inconclusive: 89.1 µM [inhibitor, single point]		
CCN1CC(C(=O)NCc2cccc(OCc3ccccc3)c2)CC1=O (stereo not drawn)	inconclusive: 44.7 µM [inhibitor, partial curve]		
CC(C)c1noc(-c2cn(C3CCN(C(=O)c4ccc(F)c(F)c4)C3)nn2)n1 (stereo not drawn)	inconclusive: 70.8 µM [inhibitor, partial curve, poor fit]		
CC1Oc2ccc(NS(=O)(=O)c3cccc(Cl)c3)cc2CN(Cc2ccccc2F)C1=O (stereo not drawn)	active: 50.1 µM		
CC(C)c1noc(CC2CCN(C(=O)c3cccs3)CC2)n1	inconclusive: 50.1 µM [inhibitor, partial curve, poor fit]		
O=C1NCc2ccccc2CC12CCN(Cc1c[nH]c3ccccc13)CC2	inconclusive: 79.4 µM [inhibitor, partial curve, poor fit]		
C[C@@]12CO[C@@H](Cc3ccccc3)O[C@@H]1CC[C@]1(C)C2CC[C@@H](O)[C@H]1CC(=O)NCc1ccco1 (stereo partly drawn)	inconclusive: 79.4 µM [inhibitor, partial curve]		
CC(C)(C)NC(=O)NCc1nnc2n1C(C(=O)NCc1ccc(Cl)cc1)CC2 (stereo not drawn)			inactive: 4.83%
Cc1cccc(CNC(=O)c2ccc(Cn3ccn4nc5c(c4c3=O)CCCC5)cc2)c1	inconclusive: 39.8 µM [inhibitor, full curve]		
Cc1ccc(Cl)cc1Nc1ncncc1-c1nc(-c2ccccc2)no1			inactive: -13.9%

Compound	Potency	outcome	activity change, negative = cytotoxicity
COc1ccccc1C(=O)N1CC(CNc2cccnc2)C2(C1)CN(c1ccccc1)C2 (stereo not drawn)	inconclusive: 63.1 µM [inhibitor, partial curve, poor fit]		
O=C1[C@@H]2C[C@@H](CN2CC2CC2)Oc2ccccc2N1Cc1ccc(OC(F)(F)F)cc1	active: 56.2 µM		
O=C(NC1CCCCC1)C1CN(S(=O)(=O)c2cccc(F)c2)CC12CCOCC2 (stereo not drawn)			inactive: -0.0323%
O=C(NCCc1ccc(Cl)cc1)c1ccc2nnc(-c3cccnc3)n2c1	inconclusive: 22.4 µM [inhibitor, full curve]		
CCOC(=O)C1c2c(OC)ccc3c2C(=CC(C)(C)CO3)CN1C (stereo not drawn)	inconclusive: 79.4 µM [inhibitor, partial curve, poor fit]		
COc1ccc(S(=O)(=O)N2C[C@@H]3C[C@H](C2)c2c(NC(=O)c4ccc5c(c4)OCO5)ccc(=O)n2C3)cc1	inconclusive: 89.1 µM [inhibitor, single point]		
CN(Cc1cccnc1)C1CCOc2ccccc21 (stereo not drawn)	inconclusive: 126 µM [inhibitor, single point]		
O=c1n(-c2ccc(F)cc2F)nc2n1CCN([S+](=O)([O-])c1ccccc1)C2			inactive: -9.51%
CC(C)c1ccc(CN2CCc3ncc(C(=O)NCCN4CCNC4=O)n3CC2)cc1	inconclusive: 79.4 µM [inhibitor, partial curve, poor fit]		
COc1ccccc1C(=O)N1CC(CNC(=O)C2CC2)C2(C1)CN(c1ccccc1)C2 (stereo not drawn)			inactive: -2.02% [at 172 µM]
COc1ccccc1C(=O)N1CCCn2nc(C)c(-c3cccnc3N3CCOCC3)c21		inactive [at 172 µM]	
O=C1NCc2ccccc2CC12CCN(CCc1ccccc1)CC2	inconclusive: 100 µM [inhibitor, partial curve, poor fit]		
Cc1cnc(C2CC2)n1C1CCCN(C(=O)C2CCC2)C1 (stereo not drawn)			inactive: -22.5%
O=C1CCN(CC(O)COCc2ccco2)c2ccc(F)cc2CN1Cc1ccco1 (stereo not drawn)	inconclusive: 89.1 µM [inhibitor, single point]		
CCc1ccc(CN2CCN(c3ccc(C(N)=O)cn3)CC2)nc1	inconclusive: 89.1 µM [inhibitor, single point]		
CC(=O)NCCC(=O)N1CCC2(CC1)CN(C(=O)Cc1ccccc1)CCO2			inactive: 1.24%
COc1ccccc1C(=O)N1CC(CNc2ccccc2)C2(C1)CN(c1ccccc1)C2 (stereo not drawn)	inconclusive: 12.6 µM [inhibitor, full curve]		
N#Cc1cccc(NC(=O)N[C@H]2[C@H](O)[C@@H](N3CCC(Cc4ccccc4)CC3)[C@@H]3OC[C@H]2O3)c1	inconclusive: 79.4 µM [inhibitor, partial curve, poor fit]		
CC(=O)N1CCN(C(=O)c2cc(CC(C)C)[nH]c(=O)n2)CC(O)C1 (stereo not drawn)			inactive: -21%
O=C(NCc1cccc(Cl)c1)c1ccc(CN2C(=O)NC3(CCOCC3)C2=O)cc1	inconclusive: 89.1 µM [inhibitor, single point]		
COCc1noc(CC2CCOC3(CCN(C(=O)c4cc5ccccc5[nH]4)CC3)C2)n1 (stereo not drawn)	inconclusive: 79.4 µM [inhibitor, partial curve, poor fit]		

Compound	Potency	outcome	activity change, negative = cytotoxicity
O=C(c1ccc(F)cc1)N1CCCC(C(=O)N2CCC(N3Cc4cccn4C3=O)CC2)C1 (stereo not drawn)			inactive: -17.7%
Cc1ncoc1C(=O)N1CCOC(Cc2cccc(C(F)(F)F)c2)C1 (stereo not drawn)	inconclusive: 63.1 µM [inhibitor, partial curve, poor fit]		
O=C(NCCc1ccccc1F)c1ccc2nnc(-c3cccc(C(F)(F)F)c3)n2c1	inconclusive: 50.1 µM [inhibitor, partial curve, poor fit]		
O=C(c1ccoc1)N1CCC2(CC1)NC(=O)N(c1ccccc1Cl)N2	inconclusive: 35.5 µM [inhibitor, full curve, poor fit]		
NC(=O)[C@@H](Cc1ccccc1)NC(=O)[C@@H]1C[C@@H](NS(=O)(=O)c2cccs2)CCN1C(=O)COCC(=O)O			inactive: 4.59%
O=C1NC2(CCN(CC3CCCC3)CC2)Oc2ccccc21	inconclusive: 89.1 µM [inhibitor, partial curve, poor fit]		
CNC(=O)C(C)(C)N1CCC[C@H]1C(=O)N1CCC(C)CC1			inactive: -23.9% [at 172 µM]
COc1ccccc1C(=O)N1CCC(n2cc(-c3nc(-c4ccccc4)no3)nn2)C1 (stereo not drawn)	active: 28.2 µM		
Cn1nccc1OCc1cn2c(=O)n(C)cc(-c3ccc(O)c(F)c3)c2n1	inconclusive: 70.8 µM [inhibitor, partial curve]		
CCN(Cc1c(F)cccc1Cl)C(=O)CCc1c(C)nn(C)c1C	inconclusive: 50.1 µM [inhibitor, partial curve, poor fit]		
COc1cc(N2C[C@H]3OC(=O)N(Cc4ccc(OC)c(OC)c4)[C@H]3C2)ncn1	inconclusive: 89.1 µM [inhibitor, single point]		
CCc1cccc(NC(=O)CC2CCCN(c3cnn(CC4CC4)c(=O)c3)C2)c1 (stereo not drawn)	inconclusive: 44.7 µM [inhibitor, partial curve, poor fit]		
CCOC(=O)c1cccc(NC(=O)c2cnc(-c3ccccc3)nc2-c2ccncc2)c1	inconclusive: 50.1 µM [inhibitor, partial curve, poor fit]		
CN1CCCC[C@]2(C[C@H](C(=O)O)[C@H](c3ccco3)N2C(=O)c2ccco2)C1=O			inactive: -0.405%
COc1ccc(C(=O)N2CCc3ccc(C(=O)NCc4ccccc4C)cc32)cc1	inconclusive: 50.1 µM [inhibitor, partial curve]		
COc1ccc(-c2ccccc2C(=O)N2CCC(NC(=O)c3ccc(C)cc3)CC2)nn1			inactive: 4.66%
O=C(Cn1ncc2ccccc2c1=O)N1CCCC(Cc2nc3ccccc3[nH]2)C1 (stereo not drawn)	inconclusive: 50.1 µM [inhibitor, partial curve, poor fit]		
CN1CCC(NC[C@H]2COCc3nc4cc(C(F)(F)F)ccc4n32)CC1	inconclusive: 112 µM [inhibitor, single point]		
COCc1nc2nc(-c3ccccc3)c(-c3ccc([S+](C)(=O)[O-])cc3)cc2n1C		inactive [at 172 µM]	
O=C1Cc2c(-c3ccc(F)cc3F)n[nH]c2CN1CC1CC1	inconclusive: 100 µM [inhibitor, partial curve]		
O=C(CCNC(=O)c1cnccn1)NC1CCCc2c1[nH]c1ccc(Cl)cc21 (stereo not drawn)	inconclusive: 8.91 µM [inhibitor, full curve, poor fit]		
